Measurements from PubChem BioAssay AID2675 (National Center for Advancing Translational Sciences (NCATS), 2010).
The whole screen tested about 280,000 compounds, of which about 100 (0.036%) were called active. Inconclusive means that the source gave no clear call. Such entries were picked first, then a sample of the others. Calls come from the whole dose curve; as a rule, active = well fitted inhibition curve with a large enough effect in the signal ratio, with a control signal flat (not every such curve was filed as active); inconclusive = small, poorly fitted or top-dose-only effect, or effect the other way, or a change in a side signal; inactive = no such curve, though single readings can be large or run the other way; the % refers to the signal ratio. Where the call is inconclusive, the potency comes from a doubtful curve fit. A note “side channel” means that the fit belongs to a control or component signal, not to the main read-out.

target: Muscleblind-like protein 1 (Homo sapiens) (UniProt Q9NR56); assay: qHTS Assay for Inhibitors of MBNL1-poly(CUG) RNA binding; settings: TR-FRET MBNL1-His/biotin-(CUG)12 binding, 665/545 ratio; activity change, negative = inhibition: at 57.5 µM (top of the series)
Sequence of UniProt Q9NR56 (Q9NR56 whole entry, looked up): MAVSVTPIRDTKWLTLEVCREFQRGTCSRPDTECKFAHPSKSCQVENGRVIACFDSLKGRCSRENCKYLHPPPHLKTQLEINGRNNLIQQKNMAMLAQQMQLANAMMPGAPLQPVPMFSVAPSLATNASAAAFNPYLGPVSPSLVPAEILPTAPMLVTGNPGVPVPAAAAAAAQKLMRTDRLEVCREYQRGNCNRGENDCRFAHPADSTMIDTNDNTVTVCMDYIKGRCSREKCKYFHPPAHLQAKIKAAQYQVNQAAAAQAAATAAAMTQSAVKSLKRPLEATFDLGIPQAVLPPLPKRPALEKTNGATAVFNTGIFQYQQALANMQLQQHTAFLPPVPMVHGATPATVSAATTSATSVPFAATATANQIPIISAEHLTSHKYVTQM
Outline: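 Inhibition of protein-RNA binding appears as loss of TR-FRET between terbium anti-His antibody on MBNL1-His and streptavidin-XL665 on biotin-(CUG)12. Activity is normalized to buffer-only and uninhibited-complex controls.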
% is set by controls: 0 for no effect and ±100 for the full control effect; potency is the fitted concentration of half-maximal effect; tags give direction and shape of the fitted curve or compound fluorescence and quenching.

How did the Potency turn out when Cc1ccc(S(=O)(=O)N2CCN(C(=O)CN3CCCCC3)C2)cc1 was run?
Its Potency is “inactive”.

How did the Potency turn out when c1cnc(SCCOc2ccc3c(c2)CCC3)nc1 was run?
The Potency was “inactive”.

Which Potency does the source give for COc1ccc(OC)c(NC(=O)c2cc(-c3cc(Cl)ccc3O)n[nH]2)c1 here?
Its Potency is “inactive”.

For COc1ccc2c(c1)C1=NN(/C(C)=C\C(C)=O)C(c3ccccc3)C1CC2 (stereo not given), which Potency is on record?
Its Potency is inconclusive: 1.78 µM [quencher, side channel, full curve].

Which Potency does the source give for CCOc1ccc(-c2cc(N)n(S(=O)(=O)c3cccc4nsnc34)n2)cc1 here?
The Potency was inconclusive: 15.8 µM [quencher, side channel, partial curve].

For COc1ccc(/C=C/C(=O)Nc2c(C(=O)O)[nH]c3ccccc23)cc1OC, which Potency is on record?
The Potency was inconclusive: 15.8 µM [quencher, partial curve].

How did the Potency turn out when COc1ccc(C(=O)Nc2ccc(C(=O)N3CCCC3)cc2)cc1[N+](=O)[O-] was run?
The Potency was inconclusive: 11.2 µM [quencher, side channel, partial curve].

How did the Potency turn out when Brc1cc(Br)c2ncnc(N3CCCCC3)c2c1 was run?
The Potency was inconclusive: 14.1 µM [fluorescent, side channel, partial curve].

With C/C(=N\NC(=O)C(c1ccccc1)c1ccccc1)c1ccccn1 as the compound, how does the activity change, negative = inhibition read?
Its activity change, negative = inhibition is inactive: -0.23% [at 11.5 µM].

COC(=O)c1sccc1NC(=S)N1CCC(C(N)=O)CC1 was tested. Which Potency did it give?
Its Potency is “inactive”.

How did the Potency turn out when C/C(=N/NS(=O)(=O)c1cccc([N+](=O)[O-])c1)c1ccncc1 was run?
Its Potency is inconclusive: 14.1 µM [quencher, side channel, partial curve].

For COc1ccc(OC)c(Nc2cc(C)nc3nc(C)nn23)c1, which Potency is on record?
The Potency was inconclusive: 2 µM [quencher, side channel, full curve, poor fit].

O=S(=O)(NCCOC12CC3CC(CC(C3)C1)C2)c1cccc2nsnc12 was tested. Which Potency did it give?
The Potency was inconclusive: 14.1 µM [quencher, side channel, partial curve].

For CN(C)CCNc1nc2c(c(=O)[nH]c(=O)n2C)n1CCCc1ccccc1, which Potency is on record?
The Potency was “inactive”.

With COc1ccc(N2C(N)=C(C#N)C(c3ccsc3)C3=C2CCCC3=O)c(OC)c1 (stereo not given) as the compound, how does the Potency read?
Its Potency is inconclusive: 20 µM [quencher, side channel, single point].

How did the Potency turn out when COc1ccc(C(=O)ON=C2C=C(C)C(=O)C(C)=C2)cc1 was run?
Its Potency is inconclusive: 3.16 µM [quencher, side channel, partial curve].

For COC(=O)c1cc2c(=O)n3ccccc3nc2n(C)c1=N, which Potency is on record?
Its Potency is inconclusive: 7.94 µM [quencher, side channel, partial curve].

With CCOC(=O)c1ccc(-n2c(CN3CCC(C(N)=O)CC3)nc3ccc([N+](=O)[O-])cc3c2=O)cc1 as the compound, how does the Potency read?
The Potency was inconclusive: 15.8 µM [quencher, side channel, partial curve].

O=C1c2cccnc2C(=O)N1Cc1ccc(F)cc1S(=O)(=O)NCc1ccco1 was tested. Which Potency did it give?
The Potency was inconclusive: 15.8 µM [quencher, side channel, partial curve].

O=C(CSc1ccsc1[N+](=O)[O-])N1CCN(c2ccccn2)CC1 was tested. Which Potency did it give?
The Potency was inconclusive: 39.8 µM [quencher, single point].

For CCN1C(=NCCOC)N[C@@H](CCc2ccccc2)[C@H](C(=O)OC)[C@H]1C, which Potency is on record?
The Potency was “inactive”.

How did the Potency turn out when CCN(CC)c1ccc(C2NCC(c3ccc([N+](=O)[O-])cc3)O2)cc1 (stereo not given) was run?
Its Potency is inconclusive: 3.55 µM [quencher, side channel, full curve].

Which Potency does the source give for O=C(NCc1ccco1)c1cc(=O)c2ccccc2o1 here?
Its Potency is inconclusive: 31.6 µM [quencher, side channel, single point].

For O=c1c(Br)c(N2CCCC2)cnn1-c1ccccc1, which Potency is on record?
Its Potency is inconclusive: 2.82 µM [quencher, side channel, full curve, poor fit].

With COc1ccc(S(N)(=O)=O)cc1C(=O)NCCCN1CCN(c2ccccc2OC)CC1 as the compound, how does the Potency read?
The Potency was “inactive”.

For N=c1c(C(=O)NCc2ccccc2)cc2c(=O)n3ccccc3nc2n1CCCN1CCOCC1, which Potency is on record?
Its Potency is inconclusive: 14.1 µM [quencher, side channel, partial curve].

Which Potency does the source give for CCCn1c2ccccc2c2nnc(SCC(=O)Nc3ncccn3)nc21 here?
The Potency was inconclusive: 14.1 µM [quencher, side channel, partial curve].

Which Potency does the source give for Cc1ccc(-c2c(C(=O)N/N=C/c3c[nH]c4ccccc34)nnn2-c2nonc2N)cc1 here?
Its Potency is “inactive”.

Which Potency does the source give for O=C1CN(C(=O)/C=C/c2ccc(Cl)cc2Cl)CCN1 here?
Its Potency is inconclusive: 0.199 µM [quencher, side channel, full curve].

With Cc1ccc(-c2onc3ccc(C(=O)O)cc23)cc1 as the compound, how does the Potency read?
Its Potency is inconclusive: 31.6 µM [quencher, side channel, single point].

How did the Potency turn out when O=C(/C=C/c1ccco1)Nc1cccc(-c2nc3ccccc3[nH]2)c1 was run?
Its Potency is inconclusive: 39.8 µM [quencher, side channel, single point].

How did the Potency turn out when CNc1cc(N2CCN(S(=O)(=O)N(C)C)CC2)ccc1[N+](=O)[O-] was run?
The Potency was inconclusive: 6.31 µM [quencher, side channel, full curve, poor fit].

Which Potency does the source give for COc1ccccc1NC(=O)c1csc2c1CCCC2 here?
The Potency was “inactive”.

With COC(=O)c1cc(C(=O)Nc2nnc(C3CC3)s2)cc([N+](=O)[O-])c1 as the compound, how does the Potency read?
Its Potency is inconclusive: 11.2 µM [quencher, side channel, partial curve].

How did the Potency turn out when CCOc1cc(C2C(C(=O)c3ccccc3)=C(C(=O)OC)Nc3nnnn32)ccc1O (stereo not given) was run?
The Potency was inconclusive: 28.2 µM [quencher, side channel, single point].

With CCN1C(=O)c2cccc3c(NC(=O)c4ccc(OC)c(OC)c4)ccc1c23 as the compound, how does the Potency read?
The Potency was inconclusive: 3.16 µM [quencher, side channel, full curve].

How did the Potency turn out when O=C(O)C1CSC2(c3ccc(Br)cc3)CCC(=O)N12 (stereo not given) was run?
Its Potency is “inactive”.

How did the Potency turn out when CCOC(=O)N1CCN(c2c(N3CCN(c4ccccn4)CC3)c(=O)c2=O)CC1 was run?
The Potency was inconclusive: 25.1 µM [quencher, single point].

Which Potency does the source give for O=C(C[n+]1ccn(-c2ccccc2)c1)c1ccc([N+](=O)[O-])cc1 here?
Its Potency is inconclusive: 14.1 µM [quencher, side channel, partial curve].

For CC(Sc1cccc[n+]1[O-])C(=O)Nc1cccc([N+](=O)[O-])c1 (stereo not given), which Potency is on record?
Its Potency is inconclusive: 25.1 µM [quencher, side channel, partial curve].

With COc1ccc(C2=CC(=O)CC(c3ccc(OC)cc3)C2)cc1 (stereo not given) as the compound, how does the Potency read?
Its Potency is inconclusive: 20 µM [quencher, single point].

For CCOCCCn1c(SCC(=O)Nc2ccc(NC(C)=O)cc2)nc2ccccc2c1=O, which Potency is on record?
Its Potency is inconclusive: 39.8 µM [fluorescent, single point].

For O=C(Nc1ccccn1)Nc1ccccc1[N+](=O)[O-], which Potency is on record?
The Potency was inconclusive: 15.8 µM [quencher, side channel, partial curve].

How did the Potency turn out when CC(C)Oc1cccc(-c2cc(C(=O)N3CCN(c4ncccn4)CC3)c3ccccc3n2)c1 was run?
The Potency was “inactive”.

For O=C(NC(=S)Nc1ccc(S(=O)(=O)NC2CCCCC2)cc1)c1cccs1, which Potency is on record?
Its Potency is inconclusive: 0.158 µM [fluorescent, side channel, full curve, poor fit].

How did the Potency turn out when COC(=O)c1cc(C(=O)NCc2ccc3c(c2)OCO3)cc([N+](=O)[O-])c1 was run?
Its Potency is inconclusive: 12.6 µM [quencher, side channel, partial curve].

Cc1ccc(/C=C/c2ccc(N(C)C)cc2)[n+](C)c1 was tested. Which Potency did it give?
The Potency was inconclusive: 5.01 µM [quencher, side channel, partial curve].

Which Potency does the source give for CCC1CCCCN1C/C=C/c1ccccc1[N+](=O)[O-] (stereo not given) here?
Its Potency is inconclusive: 20 µM [quencher, side channel, partial curve].

For O=C(Nc1cccc(Cl)c1)c1cc([N+](=O)[O-])ccc1N1CCN(CCO)CC1, which Potency is on record?
The Potency was inconclusive: 12.6 µM [quencher, partial curve].

With O=C(N/N=C/CCc1ccccc1)c1ccc(CN2c3cccc4cccc(c34)S2(=O)=O)cc1 as the compound, how does the Potency read?
Its Potency is “inactive”.

How did the Potency turn out when O=C(Nc1ccc([N+](=O)[O-])cc1)c1cc2ccccc2nc1Cl was run?
Its Potency is inconclusive: 2.82 µM [quencher, side channel, full curve].

For Cn1c(-c2ccc(Br)o2)nc2cc(Br)ccc21, which Potency is on record?
The Potency was “inactive”.

For COc1cc(CNc2ccc(N3CCCC3)cc2)ccc1OCc1ccccc1, which Potency is on record?
Its Potency is inconclusive: 5.01 µM [quencher, side channel, partial curve].

With Cc1cc(C)n2c(=O)c3ccc(Cl)cc3nc2c1C#N as the compound, how does the Potency read?
The Potency was “inactive”.

Which Potency does the source give for CC(=O)c1ccc(C(=O)N2CCc3c([nH]c4ccccc34)C2c2ccccn2)s1 (stereo not given) here?
The Potency was inconclusive: 31.6 µM [quencher, single point].

How did the Potency turn out when COc1ccc2c(c1)CCc1c(C(=O)NCc3ccc(F)cc3)noc1-2 was run?
The Potency was inconclusive: 0.794 µM [quencher, side channel, single point].

With CCOC(=O)C(Cc1ccccc1)C(=O)Nc1ccc(N(CC)CC)cc1 (stereo not given) as the compound, how does the Potency read?
Its Potency is inconclusive: 0.1 µM [fluorescent, side channel, full curve].

With COc1cc2c(cc1OC)CN(C(=O)/C=C/c1ccc([N+](=O)[O-])cc1)CC2 as the compound, how does the Potency read?
Its Potency is inconclusive: 14.1 µM [quencher, side channel, partial curve].

How did the Potency turn out when O=c1[nH]c(SCc2cccc([N+](=O)[O-])c2)nc2[nH]ncc12 was run?
The Potency was inconclusive: 25.1 µM [quencher, side channel, partial curve].

For CCCC[C@@H]1C[C@H]1[C@@H](NC(=O)c1cccs1)c1ccc(Cl)cc1, which Potency is on record?
Its Potency is inconclusive: 39.8 µM [fluorescent, side channel, single point].
